Results from PubChem BioAssay AID624296 (National Center for Advancing Translational Sciences (NCATS), 2012).
“And” between values parts separate entries of the source, which are not always exact repeats. Identical values can stand only once. Among all 350,000 compounds or so, about 9,900 (2.8%) were called active. The inconclusive results got no clear call from the source; some entries with a clear call stand among them for comparison. Calls come from the whole dose curve; as a rule, active = well fitted activation curve with a large enough effect; inconclusive = small, poorly fitted or top-dose-only effect; inactive = no such curve, though single readings can be large or run the other way. Potencies beside an inconclusive call are fits to weak or partial responses and may not hold up.
Potency is the fitted concentration of half-maximal effect; tags give direction and shape of the fitted curve.

Test: A quantitative high throughput screen for small molecules that induce DNA re-replication in MCF 10a normal breast cells. For activity, positive = re-replication: % of control where 0% means no effect. Note: nearly all actives have a fitted effect of over 50% in size.
Details: MCF 10A DNA re-replication, Hoechst nuclear intensity, 48 h; activity, positive = re-replication: at 46.1 µM (top of the series)
For `Cc1nnc(N/N=C/c2ccc(-c3ccc(Br)cc3)o2)n1N`, the Potency was inconclusive: 29.1 µM [activator, single point]. For `CN1C(=O)c2ccccc2C(C(=O)NCCCN2CCCC2)C1c1c[nH]c2ccccc12` (stereo unspecified), the Potency was inconclusive: 18.4 µM [activator, single point]. For `O=C(NCc1nc2ccccc2[nH]1)C1=C[C@H](C2CCCCC2)C[C@H](OCc2ccc(CO)cc2)O1`, the Potency was inconclusive: 8.2 µM [activator, single point]. With `O=C1Nc2ccc(Cl)cc2C(C#CC2CC2)(C(F)(F)F)O1` (stereo unspecified) the Potency was inconclusive: 29.9 µM [activator, partial curve, poor fit] and inconclusive: 25.9 µM [activator, single point]. With `CC(C)(C)c1ccc(CN2CCN([C@H](c3ccccc3)c3ccc(Cl)cc3)CC2)cc1` the Potency was inconclusive: 13.3 µM [activator, full curve]. With `Cc1cc(/C=C2/SC(=S)N(c3cccc(Cl)c3)C2=O)c(C)n1-c1cccnc1` the Potency was inconclusive: 0.891 µM [activator, full curve, poor fit]. With `CC(C)(C)OC(=O)C[C@@H]1C/C=C\C[C@@H](CC(=O)NCCO)C(=O)N[C@H](Cc2c[nH]c3ccccc23)COC1=O` the “activity, positive = re-replication” value was inactive: -0.516%. With `O=c1oc2ccc3ccccc3c2cc1-c1nnc(-c2cccs2)o1` the “activity, positive = re-replication” value was inactive: 0.81%. With `Cc1c(C)n(Cc2ccccc2)c2ccc(C(=O)OCCCN(C)C)cc12` the Potency was active: 20.6 µM. For `O=C(CNS(=O)(=O)/C=C/c1ccccc1)OCC(=O)N1CCC(Cc2ccccc2)CC1`, the “activity, positive = re-replication” value was inactive: 26.8%. With `O=C(Nc1ccccc1)Nc1ccc(F)c([N+](=O)[O-])c1` the Potency was active: 14.6 µM. In the case of `CCN1C(=O)Cc2cc(S(=O)(=O)NCCc3ccccc3)ccc21`, the Potency is reported as inconclusive: 6.51 µM [activator, single point]. In the case of `CS(=O)(=O)c1ccc(C(=O)OCc2nnc(-c3ccc(Cl)cc3)o2)cc1[N+](=O)[O-]`, the Potency is reported as active: 3.66 µM. For `C=CCn1c(C)cc(C(=O)COC(=O)c2n[nH]c(=O)c3ccccc23)c1C`, the “activity, positive = re-replication” value was inactive: 6.19%. With `Nc1cc2c(cc1Cl)-c1ccccc1C2=NO` the Potency was inconclusive: 2.06 µM [activator, full curve, poor fit]. In the case of `O=C(C1CC1)N1CCc2cc(S(=O)(=O)N3CCN(c4ccccc4)CC3)ccc21`, the Potency is reported as inconclusive: 23.1 µM [activator, single point]. In the case of `CC1(C)OC2CC3C4CC(F)C5=CC(=O)C=CC5(C)C4(F)C(O)CC3(C)C2(C(=O)CO)O1` (stereo unspecified), the “activity, positive = re-replication” value is reported as inactive: 0.81%. With `CCCn1nnnc1NC(=O)c1cc(Cl)ccc1Cl` the Potency was inconclusive: 20.6 µM [activator, single point]. With `Fc1ccc(N/N=C2/CC(c3ccccc3)Oc3ccccc32)c(F)c1` (stereo unspecified) the Potency was inconclusive: 20.6 µM [activator, single point]. For `CCN(CC)C(=O)c1cnn(-c2ccccc2)c1NC(=O)c1ccco1`, the Potency was inconclusive: 0.0046 µM [activator, full curve, poor fit]. With `Cc1cc2ncn(-c3ncnc4sc5c(c34)CCC(C)C5)c2cc1C` (stereo unspecified) the Potency was inconclusive: 29.1 µM [activator, single point]. For `O=C(N/N=C/c1ccc([N+](=O)[O-])o1)c1cn(-c2ccccc2)nc1-c1ccccc1`, the Potency was active: 16.4 µM. In the case of `Cc1ccc(C2CN(C)C3(C(=O)Nc4ccccc43)C23COc2ccccc2C3=O)cc1` (stereo unspecified), the Potency is reported as inconclusive: 29.1 µM [activator, single point]. In the case of `CCOC(=O)c1cc(NC(=O)Nc2ccccc2OC)c(C)nc1C`, the Potency is reported as inconclusive: 0.631 µM [activator, full curve, poor fit]. With `Cc1cc(C)cc(Nc2nc(-c3ccc(S(=O)(=O)N4CCCC4)cc3)cs2)c1` the “activity, positive = re-replication” value was inactive: 0.874%. With `CC[C@]12c3[nH]c4ccccc4c3CCN1C(=O)C(CC(=O)NC(C)(C)C)C[C@@H]2C(=O)N1CCN(C(=O)C2CC2)CC1` (stereo partly specified) the Potency was inconclusive: 18.4 µM [activator, single point]. For `Cc1cccc(N(CC(=O)Nc2c(C)n(C)n(-c3ccccc3)c2=O)S(C)(=O)=O)c1C`, the Potency was inconclusive: 16.4 µM [activator, single point]. For `COc1ccc(N(CC(=O)NC2CC3CCC2C3)S(=O)(=O)c2ccc(C)cc2)cc1` (stereo unspecified), the Potency was inconclusive: 29.1 µM [activator, partial curve, poor fit]. In the case of `COc1ccc(OC)c(S(=O)(=O)Nc2ccc(-c3ccc4nncn4n3)cc2)c1`, the Potency is reported as inconclusive: 23.1 µM [activator, partial curve, poor fit]. With `COc1ccc(N(C(=O)c2ccccc2)S(=O)(=O)c2cccs2)cc1` the Potency was inconclusive: 20.6 µM [activator, single point]. With `CC(=O)N1CCN(C(=O)c2cccc(S(=O)(=O)N3c4ccccc4CC3C)c2)CC1` (stereo unspecified) the activity, positive = re-replication was inconclusive: 58.7% [activator]. With `CCN(C1CCS(=O)(=O)C1)S(=O)(=O)c1ccc(OC)c(OC)c1` (stereo unspecified) the “activity, positive = re-replication” value was inactive: -0.799%. In the case of `Cc1ccc(/C=C(\C#N)C(=O)NCC2CCCO2)o1` (stereo unspecified), the “activity, positive = re-replication” value is reported as inactive: 3.81%. With `CCN1/C(=C/C=C/C=C/C=C/c2sc3ccccc3[n+]2CC)Sc2ccccc21` the Potency was inconclusive: 29.1 µM [activator, single point]. For `CC(=O)c1ccc(OCCCC(=O)Nc2ccc(S(=O)(=O)N3CCOCC3)cc2)cc1`, the “activity, positive = re-replication” value was inactive: 8.07%. In the case of `COc1ccc(C(=O)/C=C/c2ccc3c(c2)OCCO3)cc1`, the Potency is reported as inconclusive: 29.1 µM [activator, single point]. With `CC(C)c1ccc(C(=O)OCC(=O)c2c(N)n(C)c(=O)n(C)c2=O)cc1` the Potency was inconclusive: 29.1 µM [activator, partial curve, poor fit]. With `COc1cc(/C=N/NC(=O)c2c(-c3ccccc3)noc2C)ccc1O` the “activity, positive = re-replication” value was inactive: -0.0057%. With `CCn1cc(C(=O)NCCCN2CCCC(C)C2)c(=O)c2cc(S(=O)(=O)N3CCc4ccccc4C3)ccc21` (stereo unspecified) the “activity, positive = re-replication” value was inactive: 3.45%. In the case of `O=c1oc2cc(Br)ccc2n1CSC1=NCCS1`, the Potency is reported as inconclusive: 23.1 µM [activator, partial curve, poor fit]. In the case of `Cc1cccn2c(=O)c(C=O)c(Sc3ncccn3)nc12`, the Potency is reported as inconclusive: 29.1 µM [activator, single point].
